# Measured values as given in the antibiotic and cytotoxicity screens of Wong et al. (2023).
# This is one part of the list.
# Test system: HSkMC (human skeletal muscle cells)
# Assay: cytotoxicity call (relative viability < 0.9)
# Conditions: 10 µM
row,SMILES,cytotoxicity call
1,C[C@H](CO)N1C[C@H](C)[C@H](CN(C)S(=O)(=O)c2cccc(F)c2)Oc2ncc(C#CCN(C)C)cc2C1=O,inactive
2,C[C@@H]1CN([C@@H](C)CO)S(=O)(=O)c2ccc(C#CC(C)(C)O)cc2O[C@@H]1CN(C)C(=O)C1CCCCC1,inactive
3,CO[C@H]1CN(C)C(=O)c2cc(NS(=O)(=O)CC(F)(F)F)ccc2OC[C@H](C)N(Cc2cccnc2)C[C@H]1C,inactive
4,Cc1noc(C)c1NC(=O)Nc1ccc2c(c1)C(=O)N([C@@H](C)CO)C[C@@H](C)[C@@H](CN(C)C(=O)Nc1ccccc1)OCCCC[C@@H](C)O2,inactive
5,C[C@@H]1CN([C@H](C)CO)C(=O)c2cc(NS(=O)(=O)c3ccc(Cl)cc3)ccc2O[C@@H](C)CCCCO[C@H]1CN(C)Cc1ccccc1,inactive
6,CCCNC(=O)N1[C@@H]2Cn3c(cccc3=O)[C@H]1[C@@H](C(=O)NCC(F)(F)F)[C@@H]2CO,inactive
7,NC(=O)CCC(N)C(=O)O (stereo not given),inactive
8,CS(=O)(=O)N1C[C@H]2C[C@@H](F)[C@@H](O)[C@@H]2C1,inactive
9,C[C@@H]1CN([C@@H](C)CO)C(=O)c2cc(NC(=O)c3ccccc3)ccc2O[C@@H](C)CCCCO[C@@H]1CN(C)C(=O)Nc1ccc(C(F)(F)F)cc1,inactive
10,C[C@@H]1CN([C@@H](C)CO)C(=O)c2cccc(NS(=O)(=O)c3ccc(Cl)cc3)c2O[C@@H]1CN(C)C(=O)Nc1cccc2ccccc12,inactive
11,C[C@@H]1CCCCO[C@H](CN(C)S(=O)(=O)c2ccc(F)cc2)[C@H](C)CN([C@@H](C)CO)C(=O)c2cc(NS(=O)(=O)c3ccc(Cl)cc3)ccc2O1,inactive
12,C[C@H](CO)N1C[C@H](C)[C@@H](CN(C)Cc2ccccc2)Oc2c(NC(=O)CCCCCC(=O)Nc3ccccc3N)cccc2C1=O,inactive
13,C=CCNC(N)=S,inactive
14,C[C@H](CO)N1C[C@H](C)[C@H](CN(C)C(=O)Cc2ccncc2)Oc2ncc(C#CC3(O)CCCC3)cc2C1=O,inactive
15,COc1ccc(S(=O)(=O)N(C)C[C@@H]2Oc3c(NC(=O)C4CCOCC4)cccc3C(=O)N([C@H](C)CO)C[C@@H]2C)cc1,inactive
16,C[N+]1(C)CCC(OC(=O)C(O)(c2ccccc2)C2CCCC2)C1.[Br-] (stereo not given),inactive
17,COc1ccc(NC(=O)N(C)C[C@H]2OCc3ccccc3-c3c(n(C)c4ccccc34)C(=O)N([C@@H](C)CO)C[C@H]2C)cc1,inactive
18,C[C@@H]1CCCCO[C@H](CN(C)C(=O)Nc2ccc(F)cc2)[C@H](C)CN([C@@H](C)CO)C(=O)c2cc(NS(=O)(=O)c3ccc(Cl)cc3)ccc2O1,inactive
19,COCC(=O)Nc1ccc2c(c1)C(=O)N(C)[C@H]1CC[C@H](CC(=O)NC3Cc4ccccc4C3)O[C@H]1CO2,inactive
20,CN1CCN(C(=O)C[C@H]2CC[C@H]3[C@H](COc4ccc(NC(=O)c5cscn5)cc4C(=O)N3C)O2)CC1,inactive

row,SMILES,cytotoxicity call
1,CO[C@@H]1CN(C)C(=O)c2cc(NC(=O)c3ccc(F)cc3)ccc2OC[C@H](C)N(C(=O)CN(C)C)C[C@@H]1C,inactive
2,C[C@H]1CN([C@@H](C)CO)C(=O)c2cc(NC(=O)Cc3cn(C)c4ccccc34)ccc2O[C@@H]1CN(C)S(=O)(=O)c1cn(C)cn1,inactive
3,COc1ccc(NC(=O)N(C)C[C@@H]2Oc3ccc(NS(=O)(=O)c4c(C)noc4C)cc3C(=O)N([C@@H](C)CO)C[C@@H]2C)cc1,inactive
4,C[C@@H]1CN([C@H](C)CO)C(=O)Cc2cc(NS(=O)(=O)c3ccccc3)ccc2O[C@@H]1CN(C)Cc1ccncc1,inactive
5,CCCCCCc1ccc(O)cc1O,active
6,C[C@H](CO)N1C[C@H](C)[C@@H](CN(C)C(=O)Cc2cccnc2)Oc2cc(C#Cc3ccccc3F)ccc2S1(=O)=O,inactive
7,C[C@@H]1CN([C@H](C)CO)C(=O)c2cc(NC(=O)c3ccccc3)ccc2O[C@@H](C)CCCCO[C@H]1CN(C)Cc1ccc(Cl)c(Cl)c1,inactive
8,C[C@H]1CN([C@@H](C)CO)C(=O)c2cccc(NC(=O)C3CCOCC3)c2O[C@H]1CN(C)C(=O)Nc1ccc2c(c1)OCO2,inactive
9,CC(=O)Oc1cncc(C(=O)O)c1,inactive
10,O=c1c(O)c(-c2ccc(O)c(O)c2)oc2c(OC3OC(CO)C(O)C(O)C3O)c(O)cc(O)c12 (stereo not given),inactive
11,C[C@@H]1CN([C@@H](C)CO)C(=O)Cc2cc(NC(=O)CCCCCC(=O)Nc3ccccc3N)ccc2O[C@@H]1CN(C)Cc1ccc(-c2ccccc2)cc1,inactive
12,C[C@H](CO)N1C[C@H](C)[C@H](CN(C)C(=O)C2CCOCC2)Oc2ncc(/C=C/c3ccccc3)cc2C1=O,inactive
13,C[C@@H]1CCCCO[C@@H](CN(C)CC2CCCCC2)[C@H](C)CN([C@H](C)CO)C(=O)c2cc(NC(=O)Nc3cccc4ccccc34)ccc2O1,active
14,COc1ccc(CN(C)C[C@@H]2OCCCC[C@H](C)Oc3ccc(NC(=O)c4ccncc4)cc3C(=O)N([C@@H](C)CO)C[C@H]2C)cc1,inactive
15,Cc1cc(O)c2c(c1)C(=O)c1c(c(O)cc(O)c1-c1c(O)cc(O)c3c1C(=O)c1cc(C)cc(O)c1C3=O)C2=O,inactive
16,C[C@@H]1CN([C@@H](C)CO)C(=O)c2cc(NC(=O)C3CCCCC3)ccc2O[C@H]1CN(C)S(=O)(=O)c1cn(C)cn1,inactive
17,Cc1ccc(S(=O)(=O)N(C)C[C@H]2Oc3ccc(NS(C)(=O)=O)cc3C(=O)N([C@H](C)CO)C[C@H]2C)cc1,inactive
18,CCc1cnc2c(c1OC)c(=O)n(CCN1CCOCC1)c(=O)n2C,inactive
19,C[C@H](NC(=O)C[C@H]1C[C@H]2c3cc(NC(=O)Nc4ccc(C(F)(F)F)cc4)ccc3O[C@H]2[C@@H](CO)O1)c1ccccc1,inactive
20,O=C(NO)c1cccc(C(=O)N/N=C/[C@H](O)[C@@H](O)[C@H](O)CO)c1,inactive
